Source: ChEMBL document CHEMBL4888484, “Replenishing the malaria drug discovery pipeline: Screening and hit evaluation of the MMV Hit Generation Library 1 (HGL1) against asexual blood stage Plasmodium falciparum ,using a nano luciferase reporter read-out” (2022)
Among all 150,000 compounds or so, about 540 (0.36%) showed an effect of 50% or more. The list shows a part of the results.

test system: Plasmodium falciparum; experiment: Primary screen in NF54 nanoGlo assay, in single point, at 2uM, 72h; a lower Z score goes with more inhibition; assay type: functional, Erythrocyte; conditions: timepoint 72 hour

Compound | % Inhibition | Z score
Cc1ccc(S(=O)(=O)NC(C)C)c(C)c1 | 31% | -0.92
COc1ccc(N2CCN(C(=O)c3snc4c(=O)n(C)c(=O)[nH]c34)CC2)cc1 | -7% | 1.19
COc1ccc(CC(=O)N2CC[C@@H](CC(=O)O)[C@@H](CCN(C)c3ccccc3)C2)cc1 | -5% | 0.82
CC[C@@H](C(=O)Nc1cc(OC)ccc1OC)n1nc(C)c2c(C)onc2c1=O | -12% | 1.21
O=C(c1coc(Br)c1)N1C2COCC1C2 | -10% | 1.26
COc1cccc(CCCN(CCCO)Cc2ccccn2)c1 | -5% | 0.8
O=C(CN1C(=O)C2(CCCC2)N=C1O)N1CCC(Cc2ccccc2)CC1 | 31% | -3.5
CCOC(=O)c1cnn(CN(CC)CC(F)(F)F)c1C(F)F | 5% | -0.51
CCn1c(C(=O)NCCN2CCOCC2)cc2cc(NC(=O)c3ccco3)ccc21 | -1% | 0.1
Nc1cc(N2C[C@H](O)[C@@H](F)C2)nc(N2CCOCC2)n1 | -9% | 0.99
CC[C@H](C)NC(=O)c1cc(NS(=O)(=O)c2ccc3c(c2)CCCC3)ccc1N1CCNCC1 | -10% | 1.21
COC(=O)c1ccc(C(=O)Nc2nc(-c3cccc4ccccc34)cs2)cc1 | -2% | 0.4
CC(C)(C)c1nc(CN2CCN(c3ncccn3)CC2)no1 | -2% | 0.28
Cc1ccc(-n2nc3c(=O)n(CCCC(=O)N4CCc5ccccc5C4)nc(C)c3c2C)cc1 | 18% | -2.11
COc1cccc(CNC(=O)N2CCC[C@H](Oc3nc(C(C)C)nc4c3CCOCC4)C2)c1 | -5% | 0.74
CCCc1noc(-c2ccnc(-n3cnc(C(=O)N4CCC[C@H](C)C4)c3)c2)n1 | -6% | 1.13
Cc1ccccc1C(=O)N1C[C@H](O)C[C@H]1c1n[nH]c(-c2ccccc2)n1 | -2% | 0.3
CC(=O)N1CCC(NC(=O)COc2ccc(-c3ccccc3)cc2Cl)CC1 | -11% | 1.5
COc1cc2c(cc1-c1nccn1CCc1nc3ccccc3[nH]1)OCO2 | 3% | -0.32
Cc1c(Cl)cnn1Cc1nnc(-c2ccc(Cl)cc2)o1 | 3% | -0.43
Clc1cccc(COc2ccccc2CNc2nc[nH]n2)c1 | 38% | -4.29
CC(C)Oc1ccc(Br)cc1N | -16% | 2.15
CCCc1cncnc1N[C@H]1C[C@@H](c2cc(N3CCOCC3)ncn2)C1 | -17% | 1.94
Cn1nnnc1Cn1ccc(C(F)(F)F)cc1=O | -10% | 1.32
Cc1n[nH]c(C)c1S(=O)(=O)Nc1ccc(-c2ccccc2)cc1 | -4% | 0.55
C[C@@]1(C(=O)NC2CCCCCC2)CN(S(=O)(=O)c2ccccc2)CC(=O)N1c1ccccc1F | -2% | 0.31
COc1ccc(CN2CC[C@H](c3nnc(-c4ccccc4OC)o3)C2)cc1 | 17% | -1.96

Compound | % Inhibition | Z score
CN1CCC2(CCCN2Cc2nc(-c3ccccc3)cs2)CC1 | 6% | -1.01
Cc1cc(CS(=O)(=O)Cc2ccccc2)no1 | -10% | 0.96
CCn1ncc2ncn(Cc3ccon3)c(=O)c21 | -15% | 2.57
CCc1noc(CN(C2CC2)[C@H]2CCc3ccccc32)n1 | -6% | 0.52
CN(C)S(=O)(=O)c1ccc2c(c1)nc(C(F)(F)F)n2CCC(=O)Nc1ccccc1Cl | -8% | 0.83
CC1=C(C(=O)Nc2ccccc2C)C2(CCCC2)[C@@H](C(N)=O)C(=O)N1 | -3% | 0.61
Cc1cccc(N(C)CCN2CCOCC2)n1 | -16% | 2.2
CN1CCCC(CN)C1c1cccc(Cl)c1 (stereo unspecified) | -5% | 0.6
Cc1cccc(CNC(=O)[C@H]2CCCN(C3CCN(Cc4ccncc4)CC3)C2)c1 | -4% | 0.78
c1ccn2ncc(-c3nc([C@H]4CCOC4)no3)c2c1 | -9% | 1.68
C=CCN1CCC(Nc2cnc3ccccc3n2)CC1 | 5% | -1.06
Cc1ccc(O)c(C(=O)NC2=CCC(=O)N2)c1 | -11% | 1.73
CC1CC(=O)N(CC(O)COc2cccc3[nH]ccc23)C1=O (stereo unspecified) | -4% | 0.74
COc1ccccc1CC(=O)NCc1nc(N(C)C)nc(N(C)C)n1 | 7% | -1
Cc1ccc(CNC(=O)N2CCc3c(c(-c4nncn4-c4ccccc4)nn3C)C2)cc1 | 7% | -0.9
CN(CCc1ccccn1)Cc1csnn1 | -2% | 0.34
CCOc1cc2cc(c1)C(=O)N(C)CC(=O)N[C@@H]1CN(C(=O)CCOc3ccccc3)CC[C@@H]1OCc1cccc(c1)O2 | 5% | -0.7
CCC(C)(C)NS(=O)(=O)c1cc2[nH]c3c(c2cc1C)C(=O)CC(C)(C)C3 | -11% | 2.19
COc1ccc(CC(=O)N2CCCN(c3nc(Cc4ccc(C)cc4)nc4c3cnn4-c3ccccc3)CC2)cc1 | -2% | 0.26
C[C@]1(c2noc(C3CC3)n2)CCCN(C(=O)C2CCCCC2)C1 | -6% | 0.89
O=C(c1ccc2ncccc2c1)N1CC[C@@H]2CN(Cc3cccnc3)[C@@H]2C1 | -20% | 2.65
O=S(=O)(NCCC1CC2CCC1O2)c1c[nH]c2ccccc12 (stereo unspecified) | -2% | 0.38
NC(=O)c1cccc(CN2CCC3(CC2)C[C@@H]3c2nc(-c3cccc(Cl)c3)no2)c1 | -5% | 0.94
CNC(=O)C1CCN(c2nc3ncn(CC(=O)Nc4ccc(F)cc4)c(=O)c3s2)CC1 | -24% | 2.12
Cc1cccc(OCC(=O)N2C[C@@H](C)[C@@](C)(O)C2)c1 | -11% | 1.91
CC(=O)N1CCCN([C@@H](C)c2nnc(-c3cccs3)o2)CC1 | 0% | 0.03
